Reference: PMC2982165 (Nature Communications, 2010)

Biological target: T1, IscS_I314E/M315E (E. coli, UniProt P0A6B7 1-404, I314E | M315E)
T1 sequence: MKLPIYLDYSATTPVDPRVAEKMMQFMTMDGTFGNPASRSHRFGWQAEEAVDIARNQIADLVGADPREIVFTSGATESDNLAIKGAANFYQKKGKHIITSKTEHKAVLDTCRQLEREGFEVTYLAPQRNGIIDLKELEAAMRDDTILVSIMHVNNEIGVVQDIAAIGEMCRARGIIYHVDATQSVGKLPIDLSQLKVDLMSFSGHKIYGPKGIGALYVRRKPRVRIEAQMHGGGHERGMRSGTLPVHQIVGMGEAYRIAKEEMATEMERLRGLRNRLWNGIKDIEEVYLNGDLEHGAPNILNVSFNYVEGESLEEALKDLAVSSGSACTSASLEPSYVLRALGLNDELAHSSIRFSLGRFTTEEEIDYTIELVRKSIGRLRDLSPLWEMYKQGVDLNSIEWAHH
Test: NMR titration

B1: IscU (scaffold protein) (natural protein)
chain: AYSEKVIDHYENPRNVGSFDNNDENVGSGMVGAPACGDVMKLQIKVNDEGIIEDARFKTYGCGSAIASSSLVTEWVKGKSLDEAQAIKNTDIAEELELPPVKIHCSILAEDAIKAAIADYKSKREAK
modifications: 15N uniformly labelled in the NMR titrations of IscU
  binding result: binds
